Data: article PMC5392571, “A model for the conformational activation of the structurally quiescent metalloprotease ADAMTS13 by von willebrand factor” (The Journal of Biological Chemistry, 2017)

Columns and labels:
Conditions in all cases: both partners purified
[1] = target: T1, Recombinant human ADAMTS13 (wild type, full length) (human, UniProt Q76LX8 75-1427); experiment: SPR; BIAcore T100, CM5 chip; ADAMTS13, its truncation variants or CUB fragments immobilised, VWF D4-CK as analyte; 10 mM HEPES, 150 mM NaCl, pH 7.4, 0.0034 mM EDTA, 0.005% Tween 20; global analysis
T1 construct: ADAMTS13, human, full-length construct (last residue 1427 by the printed limits of the fragments); signal peptide in the construct; also called WT ADAMTS13; source: HEK293S cells, purified
T1 sequence (looked up): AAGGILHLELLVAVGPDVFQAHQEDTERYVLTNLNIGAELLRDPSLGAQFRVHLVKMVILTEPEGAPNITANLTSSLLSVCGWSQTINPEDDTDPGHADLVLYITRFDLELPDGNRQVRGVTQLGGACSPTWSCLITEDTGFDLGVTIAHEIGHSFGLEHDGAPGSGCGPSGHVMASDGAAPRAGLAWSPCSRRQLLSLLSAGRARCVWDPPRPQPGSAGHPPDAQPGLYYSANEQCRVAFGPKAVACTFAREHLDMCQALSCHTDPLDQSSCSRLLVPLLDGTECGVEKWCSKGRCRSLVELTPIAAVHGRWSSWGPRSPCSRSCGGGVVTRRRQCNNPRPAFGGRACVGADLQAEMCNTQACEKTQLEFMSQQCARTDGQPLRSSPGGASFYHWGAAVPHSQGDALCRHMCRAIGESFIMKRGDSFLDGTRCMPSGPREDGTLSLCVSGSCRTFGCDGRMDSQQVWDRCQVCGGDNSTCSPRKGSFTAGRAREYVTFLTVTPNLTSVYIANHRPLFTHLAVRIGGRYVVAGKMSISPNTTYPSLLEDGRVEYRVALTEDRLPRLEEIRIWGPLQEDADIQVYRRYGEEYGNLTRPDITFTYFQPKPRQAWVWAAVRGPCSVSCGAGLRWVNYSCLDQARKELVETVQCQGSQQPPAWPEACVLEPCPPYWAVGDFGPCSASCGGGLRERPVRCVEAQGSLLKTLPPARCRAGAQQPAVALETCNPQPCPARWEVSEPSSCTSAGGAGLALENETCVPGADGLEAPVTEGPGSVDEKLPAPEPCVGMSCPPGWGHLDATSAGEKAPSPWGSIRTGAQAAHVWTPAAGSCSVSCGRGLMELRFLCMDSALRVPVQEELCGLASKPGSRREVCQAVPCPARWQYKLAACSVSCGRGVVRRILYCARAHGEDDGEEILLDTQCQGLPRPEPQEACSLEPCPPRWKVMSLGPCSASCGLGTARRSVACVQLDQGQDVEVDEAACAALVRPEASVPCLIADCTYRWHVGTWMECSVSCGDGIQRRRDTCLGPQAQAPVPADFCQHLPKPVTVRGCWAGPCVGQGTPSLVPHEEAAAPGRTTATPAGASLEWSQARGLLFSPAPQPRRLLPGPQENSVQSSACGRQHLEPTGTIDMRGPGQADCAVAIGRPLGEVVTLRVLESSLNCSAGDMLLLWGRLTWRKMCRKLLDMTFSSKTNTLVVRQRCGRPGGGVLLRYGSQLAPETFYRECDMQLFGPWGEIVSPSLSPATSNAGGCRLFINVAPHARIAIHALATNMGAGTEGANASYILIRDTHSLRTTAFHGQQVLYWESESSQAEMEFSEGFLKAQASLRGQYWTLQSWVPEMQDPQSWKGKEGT

[2] = target: T2, WTΔCUB2 (ADAMTS13 residues 1–1298) (human, UniProt Q76LX8 30-1298); experiment: as above
T2 construct: signal peptide in the construct; ADAMTS13, human, residues 1-1298 (truncated after CUB1); Generated by inverse PCR from the full-length construct; also called ADAMTS13ΔCUB2; source: HEK293S cells, purified
T2 sequence (looked up): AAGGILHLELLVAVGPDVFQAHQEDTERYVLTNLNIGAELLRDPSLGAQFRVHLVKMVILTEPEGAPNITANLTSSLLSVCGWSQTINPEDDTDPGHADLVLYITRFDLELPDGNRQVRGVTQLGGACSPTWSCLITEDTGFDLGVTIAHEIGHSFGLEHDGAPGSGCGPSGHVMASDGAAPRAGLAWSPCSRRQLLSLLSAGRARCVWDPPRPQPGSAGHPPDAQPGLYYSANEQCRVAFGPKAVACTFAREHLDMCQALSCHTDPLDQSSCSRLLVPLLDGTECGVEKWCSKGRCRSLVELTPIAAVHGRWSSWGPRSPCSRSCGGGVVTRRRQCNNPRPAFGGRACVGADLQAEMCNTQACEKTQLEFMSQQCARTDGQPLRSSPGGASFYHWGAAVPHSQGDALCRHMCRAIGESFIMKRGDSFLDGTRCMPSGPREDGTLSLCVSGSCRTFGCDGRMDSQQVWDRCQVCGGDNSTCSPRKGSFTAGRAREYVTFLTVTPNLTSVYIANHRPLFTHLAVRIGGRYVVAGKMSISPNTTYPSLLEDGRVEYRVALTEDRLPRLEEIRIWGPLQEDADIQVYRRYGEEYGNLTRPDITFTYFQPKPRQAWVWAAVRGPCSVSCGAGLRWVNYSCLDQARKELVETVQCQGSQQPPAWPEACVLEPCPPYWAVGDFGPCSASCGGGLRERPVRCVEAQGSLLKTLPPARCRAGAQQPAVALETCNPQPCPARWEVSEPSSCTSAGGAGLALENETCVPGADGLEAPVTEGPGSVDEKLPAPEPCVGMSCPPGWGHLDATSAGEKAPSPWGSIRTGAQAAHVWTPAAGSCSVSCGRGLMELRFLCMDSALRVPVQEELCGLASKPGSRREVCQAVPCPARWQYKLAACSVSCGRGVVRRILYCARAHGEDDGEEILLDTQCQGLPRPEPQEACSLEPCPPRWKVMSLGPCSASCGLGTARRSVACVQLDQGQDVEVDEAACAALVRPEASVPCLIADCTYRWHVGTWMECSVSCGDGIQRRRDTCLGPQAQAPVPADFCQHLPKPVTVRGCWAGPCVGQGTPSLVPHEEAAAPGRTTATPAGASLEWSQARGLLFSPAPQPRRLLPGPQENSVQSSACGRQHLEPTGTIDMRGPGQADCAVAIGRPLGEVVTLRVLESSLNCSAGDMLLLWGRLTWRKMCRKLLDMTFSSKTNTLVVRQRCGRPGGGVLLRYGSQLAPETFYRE

[3] = target: T3, WTΔCUB1-2 (ADAMTS13 residues 1–1191) (human, UniProt Q76LX8 30-1191); experiment: as above
T3 construct: signal peptide in the construct; ADAMTS13, human, residues 1-1191 (truncated after TSP8); Generated by inverse PCR from the full-length construct; also called ADAMTS13ΔCUB1-2; source: HEK293S cells, purified
T3 sequence (looked up): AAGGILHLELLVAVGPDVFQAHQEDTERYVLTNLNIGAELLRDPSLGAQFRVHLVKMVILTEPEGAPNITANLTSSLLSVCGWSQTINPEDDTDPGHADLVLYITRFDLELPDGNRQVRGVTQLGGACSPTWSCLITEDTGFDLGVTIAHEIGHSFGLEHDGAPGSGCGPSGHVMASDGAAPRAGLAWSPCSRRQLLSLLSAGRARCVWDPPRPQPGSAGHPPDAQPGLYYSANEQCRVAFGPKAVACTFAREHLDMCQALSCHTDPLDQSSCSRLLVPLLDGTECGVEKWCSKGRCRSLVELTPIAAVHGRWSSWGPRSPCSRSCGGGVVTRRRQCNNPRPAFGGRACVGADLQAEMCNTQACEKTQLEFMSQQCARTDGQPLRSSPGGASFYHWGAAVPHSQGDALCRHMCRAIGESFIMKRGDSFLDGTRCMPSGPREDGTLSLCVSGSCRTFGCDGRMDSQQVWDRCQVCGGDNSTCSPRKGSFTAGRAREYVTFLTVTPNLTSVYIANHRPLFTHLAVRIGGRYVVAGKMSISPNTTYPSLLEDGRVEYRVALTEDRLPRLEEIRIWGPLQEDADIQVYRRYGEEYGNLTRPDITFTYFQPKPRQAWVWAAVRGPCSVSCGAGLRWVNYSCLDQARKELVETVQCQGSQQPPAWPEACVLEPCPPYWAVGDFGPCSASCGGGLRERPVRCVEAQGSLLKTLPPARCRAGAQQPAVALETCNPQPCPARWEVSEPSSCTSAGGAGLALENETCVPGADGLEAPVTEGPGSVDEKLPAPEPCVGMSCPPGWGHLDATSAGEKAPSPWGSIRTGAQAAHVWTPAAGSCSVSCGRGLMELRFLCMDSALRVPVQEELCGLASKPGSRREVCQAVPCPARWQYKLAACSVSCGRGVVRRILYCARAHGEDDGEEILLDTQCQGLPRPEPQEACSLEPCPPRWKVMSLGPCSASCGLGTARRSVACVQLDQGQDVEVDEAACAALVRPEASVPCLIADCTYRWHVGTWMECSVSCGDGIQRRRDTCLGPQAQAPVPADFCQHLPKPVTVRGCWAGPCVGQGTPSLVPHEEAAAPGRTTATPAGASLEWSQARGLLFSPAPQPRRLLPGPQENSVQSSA

[4] = target: WTΔTSP8 (ADAMTS13 residues 1–1075, 1131–1427) (human, UniProt Q76LX8 30-1427, ADAMTS13 residues 1–1075, 1131–1427, Construct is residues 1-1075 + 1131-1427; signal peptide (1-29) and propeptide (30-74) taken as removed on secretion from HEK293S (convention from UniProt features); C-terminal Myc/His6 tag left out;); experiment: ELISA; equilibrium plate binding assay; 50 nM ADAMTS13 or variant immobilised on microtiter wells; VWF D4-CK 0–500 nM for 2 h at 37 °C in PBS, 0.1% BSA, pH 7.4; detected with HRP-conjugated anti-VWF pAb; one-binding site fit; apparent KD
[5] = target: T1, Recombinant human ADAMTS13 (wild type, …); experiment: as above
[6] = target: T2, WTΔCUB2 (ADAMTS13 residues 1–1298); experiment: as above
[7] = target: T3, WTΔCUB1-2 (ADAMTS13 residues 1–1191); experiment: as above

B1: dimeric VWF D4-CK domain fragment (VWF […]) (domain or fragment)
chain: not shown
notes: von Willebrand factor, […] (D4 to CK domains); source: HEK293S, transiently expressed, purified by FPLC
[1]
  Kd: 114 nM
[2]
  Kd: 132 nM
[3]
  Kd: 131 nM
[4]
  Kd: ~1000 nM
[5]
  Kd: 146 nM
[6]
  Kd: 167 nM
[7]
  Kd: 184 nM
